# Among all 310,000 compounds or so, about 2,200 (0.71%) showed an effect of 50% or more. Effects have a minus sign here. This is one part of the list.
# Biological target: human ether-à-go-go-related gene (hERG) potassium channel (human, UniProt Q12809)
# Assay: primary screen, population patch clamp on CHO cells stably expressing hERG
# Chain of human ether-à-go-go-related gene (hERG) potassium channel (Q12809 whole entry, looked up): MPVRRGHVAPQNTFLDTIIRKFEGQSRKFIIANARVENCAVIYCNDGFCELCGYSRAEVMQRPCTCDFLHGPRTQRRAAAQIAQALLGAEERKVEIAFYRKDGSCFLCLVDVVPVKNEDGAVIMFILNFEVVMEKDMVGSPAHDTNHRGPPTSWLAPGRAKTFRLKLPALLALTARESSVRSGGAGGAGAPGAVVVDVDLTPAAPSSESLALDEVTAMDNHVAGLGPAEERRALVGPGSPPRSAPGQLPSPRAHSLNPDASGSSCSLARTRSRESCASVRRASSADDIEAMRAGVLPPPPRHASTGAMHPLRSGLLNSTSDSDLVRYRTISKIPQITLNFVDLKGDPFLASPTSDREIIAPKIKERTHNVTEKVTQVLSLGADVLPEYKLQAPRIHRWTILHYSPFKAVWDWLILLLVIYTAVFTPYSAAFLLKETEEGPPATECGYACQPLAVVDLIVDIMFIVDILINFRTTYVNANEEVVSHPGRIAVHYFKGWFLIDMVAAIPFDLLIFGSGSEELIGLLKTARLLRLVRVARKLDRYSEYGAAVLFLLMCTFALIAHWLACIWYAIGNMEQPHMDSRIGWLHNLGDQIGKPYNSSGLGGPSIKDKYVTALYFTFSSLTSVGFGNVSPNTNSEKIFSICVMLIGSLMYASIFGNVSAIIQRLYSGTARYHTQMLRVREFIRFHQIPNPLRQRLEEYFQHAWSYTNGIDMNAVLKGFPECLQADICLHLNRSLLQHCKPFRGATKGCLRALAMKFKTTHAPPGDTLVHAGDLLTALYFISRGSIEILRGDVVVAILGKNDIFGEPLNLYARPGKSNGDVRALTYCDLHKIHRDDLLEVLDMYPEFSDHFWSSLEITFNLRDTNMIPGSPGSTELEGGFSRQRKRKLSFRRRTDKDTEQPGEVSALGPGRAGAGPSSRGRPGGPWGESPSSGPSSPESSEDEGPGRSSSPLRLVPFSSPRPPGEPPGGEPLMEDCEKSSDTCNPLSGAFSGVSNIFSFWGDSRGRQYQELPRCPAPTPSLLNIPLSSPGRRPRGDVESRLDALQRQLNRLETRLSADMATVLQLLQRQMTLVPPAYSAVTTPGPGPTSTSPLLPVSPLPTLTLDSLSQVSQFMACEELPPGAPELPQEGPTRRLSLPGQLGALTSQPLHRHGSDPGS
row,SMILES,"hERG current change (%, negative = inhibition) at 1uM [%]"
1,COc1ccccc1N1CCN(C(=O)CN(c2cc(C)cc(C)c2)S(C)(=O)=O)CC1,7.84
2,CC(NC(=O)c1cccnc1)C(c1cccs1)N1CCN(c2ccccc2F)CC1 (stereo not drawn),9.11
3,COc1ccc(C)cc1N(C(=O)c1snc(C(N)=O)c1N)C(C(=O)NC1CCCC1)c1ccc(F)cc1 (stereo not drawn),7.96
4,Cn1c(=O)oc2cc(S(=O)(=O)NCCCN3CCCC3=O)ccc21,17.9
5,CCC(=O)Nc1ccc(S(=O)(=O)N2CCOCC2)cc1,1.54
6,CC1=NN(c2ccc(C)cc2)C(=O)/C1=C\C=C\c1ccccc1,7.48
7,CC(=O)N1CCc2cc(Br)cc(S(=O)(=O)N3CCCCCC3)c21,0.744
8,O=C(CCc1ccccc1)N1CCN(c2ccc(Cl)cc2)CC1,-13.9
9,O=S(=O)(Nc1ncccn1)c1ccc(NC(=S)NCc2ccco2)cc1,8.76
10,COc1cc(/C=C2\SC(=N)N(c3ccc4c(c3)OCO4)C2=O)cc(OC)c1O,3.82
11,CCC(=O)NC(c1ccco1)c1cc(Cl)c2cccnc2c1OC (stereo not drawn),-0.832
12,C=CCOc1ccccc1OCC(O)CNC(C)C.Cl (stereo not drawn),2.92
13,O=C(NCc1ccccn1)c1ccc(=O)oc1,1.12
14,O=C(c1nc2ccccn2c1CN1CCCC(c2nc3ccccc3o2)C1)N1CCCC1 (stereo not drawn),20.4
15,CC(=O)N1CCN(c2ccc(NCc3cccs3)cc2)CC1,16.8
16,CSc1ccc(/C=N\NC(=O)CNc2ccc(C)cc2)cc1,0.15
17,Cc1ccc(-n2c(C)nc3c(cnn3-c3ccc(F)cc3)c2=O)cc1C,16.7
18,Cc1cc(C)cc(NC(=O)Nc2ccc(Cl)cn2)c1,16.3
19,O=C(N/N=C/c1ccoc1)c1cccc(OC(F)(F)C(F)F)c1,2.32

row,SMILES,"hERG current change (%, negative = inhibition) at 1uM [%]"
1,Cc1cccc(NC(=O)c2ccc(C(=O)c3ccccc3)o2)c1,9.23
2,CCOc1ccc(S(=O)(=O)NCCC(=O)N(C)Cc2ccc(C)o2)cc1,6.62
3,COc1nc(Nc2ccc(O)cc2)nc(OC(C(F)(F)F)C(F)(F)F)n1,-2.68
4,C=C1CCC[C@]2(C)C[C@H]3OC(=O)C(CN(C)CC(OC)OC)[C@H]3CC12 (stereo partly drawn),20.3
5,O=C(CN(c1ccc2c(c1)OCCO2)S(=O)(=O)c1ccccc1)NCC1CCCO1 (stereo not drawn),8.3
6,Cc1ccc(NC(=O)C2CCCN2C(=O)Oc2ccccc2)cc1C (stereo not drawn),-1.53
7,O=C(O)c1ccc2nc(-c3ccccc3)sc2c1,2.95
8,CC(C)C(NC(=O)CCN1C(=O)c2ccccc2C1=O)c1ccccc1 (stereo not drawn),16.6
9,CCN1CNC(=S)N(c2cccc(C)c2C)C1,0.6
10,CCCCN(C)C(=O)c1nc2ccccn2c1CN1CCN(c2ncccn2)CC1,6.17
11,COC(=O)CSc1nnc(CNC(=O)c2cccs2)n1-c1cc(OC)ccc1OC,1.7
12,CCOn1c(=O)c(-c2ccc(OC)cc2)[n+]([O-])c2ccccc21,-2.13
13,Cc1cccc(OCC(=O)Nc2ccc3c(C)cc(=O)oc3c2)c1,2.78
14,C=CCn1c(SCC(=O)Nc2ccc(F)cc2F)nc2c([nH]c3ccccc32)c1=O,18.9
15,CN(C(=O)COC(=O)CNC(=O)C1CCCCC1)c1ccccc1,8.7
16,C=CCSc1nc2c(c(-c3ccsc3)c1C#N)CN(C)CC2,8.21
17,COc1ccccc1NC(=O)CN1CCN(C2c3ccccc3-c3ccccc32)CC1,9.42
18,O=C(Nc1ccccc1F)c1cccc(C(=O)Nc2ccccc2F)c1,8.21
19,O=C(N/C(=C/c1ccco1)C(=O)N1CCCCC1)c1cccs1,-6.92

row,SMILES,"hERG current change (%, negative = inhibition) at 1uM [%]"
1,O=C(Cn1cnc2c(cnn2-c2ccccc2)c1=O)N1CCCc2ccccc21,-13.6
2,CCN(CC(=O)Nc1c(F)cccc1F)C(=O)CCc1nc2cc(S(=O)(=O)N3CCOCC3)ccc2n1C,9.44
3,CC/C(=N\NC(N)=O)c1c(O)[nH]c(=O)[nH]c1=O,15.6
4,Cc1csc(=O)n1CCC(=O)OCC(=O)N(CC(C)C)c1c(N)n(Cc2ccccc2)c(=O)[nH]c1=O,11.8
5,CN(Cc1ccccc1)c1nc(N)c([N+](=O)[O-])c(NCc2ccccc2)n1,13.2
6,O=c1c(-c2ccnn2-c2ccc(F)cc2)cnc2n1CCS2,11.9
7,Brc1ccc(CNCc2cccs2)cc1,-23
8,CCc1ccc(OCC(=O)NNC(=S)NC(=O)C2CC2)c(Br)c1,8.11
9,CCn1c2ccccc2c2cc(NC(=O)COc3ccccc3)ccc21,6.78
10,CC1CN(C(=S)SCC(=O)c2ccc([N+](=O)[O-])cc2)CC(C)O1 (stereo not drawn),5.84
11,Cc1ccc(S(=O)(=O)N2CCC(C(=O)OCc3ccccc3)CC2)cc1C,16.1
12,CCOc1ccc(N(CC(=O)Nc2ccccc2OC)S(C)(=O)=O)cc1,0.0617
13,Fc1ccccc1NC(=S)N1CCC(c2ccccc2)C1 (stereo not drawn),9.62
14,O=C(NCc1cccc(F)c1)C1CCN(S(=O)(=O)Cc2ccccc2)CC1,9.46
15,O=C(NC(=O)c1ccccc1Cl)Nc1ccc(-c2cnco2)cc1,4.15
16,CCC(=O)NCc1csc(-c2cccs2)n1,13.7
17,O=C(NC(=S)N1CCN(Cc2ccccc2)CC1)c1cccnc1,6.51
18,CCc1nnc(NC(=O)CSc2nc(-c3ccccc3)nc3ccccc23)s1,18.8
19,Cl.O=C(NCCCn1ccnc1)c1ccc(N2CCCCCC2)c([N+](=O)[O-])c1,-51.6

# — PMC4336329 (PLoS ONE, 2015)
